Data published in the antibiotic and cytotoxicity screens of Wong et al. (2023).
Some of the results follow.

System: HSkMC (human skeletal muscle cells)
Test: cytotoxicity call (relative viability < 0.9)
Conditions: 10 µM

| SMILES | cytotoxicity call |
| --- | --- |
| Cn1ncc2c(=O)nc[nH]c21 | inactive |
| COc1ccccc1S(=O)(=O)N(C)C[C@H]1Oc2cc(C#CCC(C)C)ccc2S(=O)(=O)N([C@@H](C)CO)C[C@H]1C | inactive |
| O=c1cccn[nH]1 | inactive |
| COC(=O)c1c(C)c2c(c(C)c1O)OC(=O)c1c(C)c(Cl)c(O)c(Cl)c1O2 | inactive |
| CC(C)CNC(=O)C[C@H]1NCCNC1=O | inactive |
| COc1ccc(-c2coc3cc(O)cc(OC)c3c2=O)cc1 | inactive |
| O=C(O)Cc1cccc(OCCCN(Cc2cccc(C(F)(F)F)c2Cl)CC(c2ccccc2)c2ccccc2)c1 | inactive |
| C[C@@H]1CN([C@@H](C)CO)C(=O)c2cc(NC(=O)Nc3cccc4ccccc34)ccc2O[C@H]1CN(C)C(=O)Nc1cccc2ccccc12 | inactive |
| C[C@@H]1CN([C@@H](C)CO)C(=O)c2cccc(NC(=O)Nc3ccccc3)c2O[C@H]1CN(C)CC1CCCCC1 | inactive |
| C[C@@H]1CN([C@H](C)CO)C(=O)CCCn2cc(nn2)CO[C@@H]1CN(C)C(=O)Nc1cccc(Oc2ccccn2)c1 | inactive |
| C[C@H](CO)N1C[C@H](C)[C@H](CN(C)CC2CC2)OCCCC[C@H](C)Oc2ccc(NC(=O)Nc3ccc4c(c3)OCO4)cc2C1=O | inactive |
| C[C@@H]1CN([C@@H](C)CO)C(=O)c2cccc(NC(=O)C3CCOCC3)c2O[C@@H]1CN(C)Cc1ccc(-c2ccccc2)cc1 | inactive |
| COc1ccc(NC(=O)N2C[C@@H](O)COC[C@H]3O[C@H](CC(=O)NCc4ccccc4OC)CC[C@@H]32)cc1 | inactive |
| COc1c(C)cc(-c2cc3c(c(CCc4ccccc4)n2)[Si](C(C)C)(C(C)C)O[C@H]3c2ccccc2)cc1C | inactive |
| COc1ccc2c3c([nH]c2c1)[C@H](CO)N(C[C@]13CN(Cc2ccccc2F)C1)S(=O)(=O)c1cn(cn1)C | inactive |
| COc1ccc(-c2cc(=O)c3c(OC)c(OC)c(OC)cc3o2)cc1OC | inactive |
| Cc1noc(C)c1S(=O)(=O)Nc1ccc2c(c1)C(=O)N([C@H](C)CO)C[C@H](C)[C@H](CN(C)CC1CCCCC1)OCCCC[C@H](C)O2 | inactive |

| SMILES | cytotoxicity call |
| --- | --- |
| C[C@H](CO)N1C[C@H](C)[C@H](CN(C)C(=O)Nc2cccc3ccccc23)Oc2c(NC(=O)NC3CCCCC3)cccc2C1=O | inactive |
| COCCNC(=O)c1ccc(N2C[C@H]3C[C@@H](C2)c2cccc(=O)n2C3)c(NC(=O)c2ccc(OC)cc2)c1 | inactive |
| COC(=O)CCn1cc(F)c(N)nc1=O | inactive |
| C[C@H]1CN([C@@H](C)CO)C(=O)Cc2cc(NC(=O)Nc3ccc(C(F)(F)F)cc3)ccc2O[C@H]1CN(C)C(=O)NC1CCCCC1 | inactive |
| C[C@@H]1CN([C@H](C)CO)C(=O)c2cc(NC(=O)Cn3cnnn3)ccc2O[C@H]1CN(C)Cc1ccc(C(F)(F)F)cc1 | inactive |
| C[C@H](CO)N1C[C@H](C)[C@H](CN(C)C(=O)Nc2ccccc2F)OCCCC[C@H](C)Oc2ccc(NC(=O)C3CCCCC3)cc2C1=O | inactive |
| COc1c(O)cc2c(c1O)[C@@H]1O[C@H](CO)[C@@H](O)[C@H](O)[C@H]1OC2=O | inactive |
| Cc1noc(C)c1NC(=O)Nc1ccc2c(c1)CC(=O)N([C@@H](C)CO)C[C@@H](C)[C@@H](CN(C)Cc1ccc(Cl)c(Cl)c1)O2 | inactive |
| Cc1cccnc1[C@@H](NC(=O)C1CCN(Cc2ccc(Cl)c(Cl)c2)CC1)c1ccc(Cl)cc1 | inactive |
| O[C@@H](CCl)CN1CC[N+]2(CC1)CC[N+]1(CCN(C[C@@H](O)CCl)CC1)CC2 | inactive |
| Cc1ccc(S(=O)(=O)Nc2ccc3c(c2)CC(=O)N([C@@H](C)CO)C[C@@H](C)[C@@H](CN(C)C(=O)NC(C)C)O3)cc1 | inactive |
| NS(=O)(=O)c1cc2c(cc1Cl)NCNS2(=O)=O | inactive |
| Cn1c(CN)nc2ccccc2c1=O | inactive |
| COc1ccc(S(=O)(=O)Nc2ccc3c(c2)C(=O)N([C@@H](C)CO)C[C@H](C)[C@H](CN(C)CC2CC2)O3)cc1 | inactive |
| C[C@@H]1CN([C@@H](C)CO)C(=O)c2cc(NC(=O)Nc3ccc(F)cc3)ccc2O[C@@H](C)CCCCO[C@H]1CN(C)Cc1ccncc1 | inactive |
| COc1ccc(S(=O)(=O)Nc2ccc3c(c2)CC(=O)N([C@H](C)CO)C[C@H](C)[C@@H](CN(C)S(=O)(=O)c2ccccc2)O3)cc1 | inactive |
| C[C@@H]1CN([C@H](C)CO)C(=O)c2cc(NC(=O)Nc3ccc(C(F)(F)F)cc3)ccc2O[C@@H](C)CCCCO[C@@H]1CN(C)C(=O)NC1CCCCC1 | inactive |
